Experimental data from the supplement of paper PMC9513381.
Recombinant human monoclonal antibodies (heavy:light variable regions). ELISA EC50 on the named antigen, from 10 µg/ml down; IC50 / IC90 against spike pseudovirus on 293T-ACE2 cells, 48 h; lower = stronger. Calls: IC50 above 1,000 ng/ml = non-neutralizing; EC50 above 1,000 ng/ml = non-binder. The source prints 1000 for neutralization that was not reached; it is given as >1000 ng/ml. Only binders of the Wuhan-Hu-1 domain have neutralization values.

Experiments:
[1] = molecular target: SARS-CoV-2 Wuhan-Hu-1 spike pseudovirus; assay: pseudovirus neutralization IC50; higher = weaker neutralization
Experimental: (§1)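 Single-round luciferase reporter pseudovirus mixed with antibody dilutions and put on 293T-ACE2 cells for 48 h; signal relative to no-antibody wells, four-parameter fit.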

[2] = molecular target: SARS-CoV-2 Wuhan-Hu-1 spike pseudovirus; assay: pseudovirus neutralization IC90; higher = weaker neutralization
Experimental: as §1

[3] = molecular target: SARS-CoV-2 Delta (B.1.617.2) spike RBD; assay: ELISA binding EC50; higher = weaker binding; ELISA of recombinant human antibody on coated antigen, from 10 µg/ml in fourfold dilutions; four-parameter fit.
[4] = molecular target: SARS-CoV-2 Omicron BA.1 spike protein; assay: as above
[5] = molecular target: SARS-CoV-2 Wuhan-Hu-1 spike receptor-binding domain; assay: as above

B1: B682 (protein)
chain 1: QVQLVESGGGVVQPGRSLRLSCAASGFNFNTYGMHWVRQAAGKGLEWVALISYDGSNEYYADSVKGRFTISRDISKNTVYLQMNSLRAEDTAVYYCAKSIFSYAYPNQYFDYWGQGTLVTVSS
chain 2: AIQLTQSPSSLSASVGDRVTITCRTSQGISNALVWYQQKPGKAPKLLIYDASSLESGVPSRFSGSGSGTDFTLTISSLQPEDFATYYCQQFNSYPLTFGGGTKVEIK
pseudovirus neutralization IC50 [1]: > 1 mg/L
pseudovirus neutralization IC90 [2]: > 1 mg/L
ELISA binding EC50 [3]: 0.0476 mg/L
ELISA binding EC50 [4]: 0.00263 mg/L
ELISA binding EC50 [5]: 0.00329 mg/L

B2: B684 (protein)
chain 1: QMQLVQSGPEVKKPGTSVKVSCKASGFTFTTSAVQWVRQARGQRLEWIGWIAVGSGNTDYAQKFQERVTITRDLSTSTAYMELRSLRSEDTAVYYCAAPYCSGGTCSDGFDIWGQGTMVTISS
chain 2: EIVLTQSPGTLSLSPGERATLSCRASQSVRTGYLAWYQQKPGQAPRLFINGASNRATGIPDRFSGSGSGTDFTLTISRLEPEDFAVYYCQQYGTSPWTFGQGTKVEIK
pseudovirus neutralization IC50 [1]: 0.00342 mg/L
pseudovirus neutralization IC90 [2]: 0.021 mg/L
ELISA binding EC50 [3]: 0.00788 mg/L
ELISA binding EC50 [4]: 0.0242 mg/L
ELISA binding EC50 [5]: 0.0023 mg/L

B3: B685 (protein)
chain 1: QVQLVQSGAEVKKPGASVKVSCKASGYTFSGHYIYWVRQAPGQGLEWMGRINPNTGDTDSAQKFQGRVTMTRDTSISTAYMELSRLGSDDTAVYYCARVFSRIRALVQGGVATFDIWGQGTMVTVSS
chain 2: DIQMTQSPSSLSASVGDRVTITCRASQTVSSNLNWYQHKPGKAPKLLIYTASNLQSGVPSRFSGGGSGTDFTLTIASLQPEDFATYYCQQSYSIPPTFGQGTKVEIK
pseudovirus neutralization IC50 [1]: 0.012 mg/L
pseudovirus neutralization IC90 [2]: 0.241 mg/L
ELISA binding EC50 [3]: 0.751 mg/L
ELISA binding EC50 [4]: > 1 mg/L
ELISA binding EC50 [5]: 0.00273 mg/L

B4: B2067 (protein)
chain 1: QVQLQESGPGLVKPSQTLSLTCTVSGGSISSGGYYWHWIRQHPGKGLEWIGSIYYSGSTYYNPSLKSRVTISVDTSKNQFSLKLSSVTAADTAVYYCARDFGGNANYFHFWGQGTLVTVSS
chain 2: IRMTQSPSSLSASVGDRVTITCQASQDINKHLSWYQQKPGKAPKLLIYDASDLEAGVPSRFSGSGSGTDFTFTIRTLQPEDIATYYCQQNENLPLTFGGGTKVEIK
pseudovirus neutralization IC50 [1]: > 1 mg/L
pseudovirus neutralization IC90 [2]: > 1 mg/L
ELISA binding EC50 [3]: 0.0135 mg/L
ELISA binding EC50 [4]: 0.024 mg/L
ELISA binding EC50 [5]: 0.00158 mg/L

B5: B2071 (protein)
chain 1: EVQLVQSGAEVKKPGESLKISCKGSGYSFTRYWIGWVRQMPGKGLEWMGIIYPGDSDTRYNPSFQGQVTVSADKSIGTAYLQWRSLKASDTAMYYCARIPHYYDRFGKARAEEYFQYWGQGTLVTVSS
chain 2: QSVLTQPPSVSGAPGQRVTISCTGNTSNIGAGFDVHWYQQLPGTAPKLLIYGNTNRPSGVPDRFSASKSGTSASLAITGLQPEDEADYYCQSCDSSLSTNWVFGGGTKLTVL
pseudovirus neutralization IC50 [1]: 0.0294 mg/L
pseudovirus neutralization IC90 [2]: 0.271 mg/L
ELISA binding EC50 [3]: 0.0065 mg/L
ELISA binding EC50 [4]: 0.0846 mg/L
ELISA binding EC50 [5]: 0.0032 mg/L

B6: B2073 (protein)
chain 1: QVQLQESGPGLVKPSGTLSLTCAVSGGSISSSNWWSWVRQPPGKGLEWIGEIYHSGSSNYNPSLESRVTMSVDKSKNHFSLKLSSVTAADTAVYYCARASYYYGLGSYSQHPYYFDYWGQGTLVTVSS
chain 2: QSVLTQPPSVSGAPGQRVTISCTGSSSNIGAGYDVNWYQQLPGTAPKLLIYDNSNRPSGVPDRFSGSKSGTSASLAITGLQAEDEADYYCQSYDNSLGGFWVFGGGTKLTVL
pseudovirus neutralization IC50 [1]: 0.864 mg/L
pseudovirus neutralization IC90 [2]: > 1 mg/L
ELISA binding EC50 [3]: 0.146 mg/L
ELISA binding EC50 [4]: 0.19 mg/L
ELISA binding EC50 [5]: 0.0107 mg/L

B7: B2111 (protein)
chain 1: EVQLVESGGGLVQPGRSLRLSCAASGFTFEDYAMHWVRQVPGKGLEWVSGLTWNGGTIGYADSVKGRFFISRDNAENSLYLQMMRLRPEDTALYYCVKDRGDYGDSSWYLDLWGRGTLVTVSS
chain 2: QSALTQPRSVSGSPGQSVTISCTGTSSGVGSYDYVSWYQQHPGKAPKLMIFDVSKRPSGVPDRFSGSKSGNTASLTISGLQAEDEADYYCCSYAGDYYVFGIGTKVTVL
pseudovirus neutralization IC50 [1]: 0.0158 mg/L
pseudovirus neutralization IC90 [2]: 0.335 mg/L
ELISA binding EC50 [3]: 0.199 mg/L
ELISA binding EC50 [4]: 0.0144 mg/L
ELISA binding EC50 [5]: 0.00357 mg/L

B8: B2075 (protein)
chain 1: EVQLLESGGGLVQPGGSLRLSCAASGFTFSNYAMNWVRQAPGKGLEWVSAIDGSVGSTYYADSVKGRFTISRDNSKNTLYLQMNSLRADDTAVYYCAKRRGYYDSIHYRPGPEYFQNWGQGTLVTVSS
chain 2: DIQLTQSPSSLSASVGDRVTITCRASQSISEYLNWYQQRPGRAPELLIYAASTLESGVPSRFSGSGYGTDFTLTISSLQPEDFATYYCQQSYNTPESFGQGTKVEIK
pseudovirus neutralization IC50 [1]: 0.00156 mg/L
pseudovirus neutralization IC90 [2]: 0.00723 mg/L
ELISA binding EC50 [3]: 0.00268 mg/L
ELISA binding EC50 [4]: 0.025 mg/L
ELISA binding EC50 [5]: 0.00162 mg/L

B9: B2078 (protein)
chain 1: EVQLVESGGGLVQPGGSLRLSCRVSGFTFSNYWMSWVRQAPGKGLEWVANIGQDGNEKYYVDSVKGRFTISRDNAKNSLYLQMNSLRAEDTAVYFCVRGMDDPYCSGGSCYNWYFDLWGRGTLVTVSS
chain 2: EIVLTQSPATLSLSPGERATLSCRASQSIYSYLAWYQQKPGQAPRLLIYDASNRATGIPARFSGSGSGTDFTLTISSLEPEDFAVYYCQQRNNWPPRFTFGPGTKVDIK
pseudovirus neutralization IC50 [1]: 0.00578 mg/L
pseudovirus neutralization IC90 [2]: 0.0603 mg/L
ELISA binding EC50 [3]: > 1 mg/L
ELISA binding EC50 [4]: 0.125 mg/L
ELISA binding EC50 [5]: 0.00296 mg/L

B10: B2080 (protein)
chain 1: QVQLVQSGAEVKKPGASVKVSCKASGYTFSGYYMNWVRQAPGQGLEWMGWINPNSGGTNYAQKFQGRVTMTRDTSISTAYMELSRLTSDDTAVYYCARPTGDSQREMGTIIGEYFQHWGQGTLVTVSS
chain 2: SYELTQPPSVSVSPGQTARITCSGDVLPKQHAYWYQQKPGQAPVLVIYKDSERSSGIPERFSGSSSGTTVTLTISGVQAEDEADYYCQSADSRYVVFGGGTKLTVL
pseudovirus neutralization IC50 [1]: > 1 mg/L
pseudovirus neutralization IC90 [2]: > 1 mg/L
ELISA binding EC50 [3]: 0.0382 mg/L
ELISA binding EC50 [4]: > 1 mg/L
ELISA binding EC50 [5]: 0.00372 mg/L

B11: B2081 (protein)
chain 1: QLQLQESGPGLVKPSETLSLTCTVSGGSITSSSYYWAWIRLPPGKGLEWIGSVFYSGITYYSPSLKSRVTISVDTSKNQFSLNLSSVTAADTAVYYCARWPRDFSDSSGYYHHAFDIWGHGTMVTVSS
chain 2: QSALTQPASVSGSPGQSITISCTGTSSDVGSYDLVSWYQRHPGQAPKLMIYEVTKRPSGVSNRFSGSKSGNTASLTISGLQAEDEADYYCCSYAGRWFFGGGTKLSVL
pseudovirus neutralization IC50 [1]: > 1 mg/L
pseudovirus neutralization IC90 [2]: > 1 mg/L
ELISA binding EC50 [3]: 0.0271 mg/L
ELISA binding EC50 [4]: 0.279 mg/L
ELISA binding EC50 [5]: 0.00332 mg/L

B12: B2082 (protein)
chain 1: EVQLVESGGGLVQPGGSLRLSCAASGITVSSNYMSWVRQAPGKGLERVSVIYSGGSTFYADSVKGRFTISRDNSKNTLYLQMKSLRAEDTAVYYCARDVSDAFDIWGQGTMVTVSS
chain 2: DIQLTQSPSFLSASVGDRVTITCRASQGISSYLAWYQQKPGKAPKLLIYAASTLQSGVPSRFSGSGSGTEFTLTISSLQPEDLATYYCQQLNSLPPKLTFGGGTKVEIK
pseudovirus neutralization IC50 [1]: 0.00851 mg/L
pseudovirus neutralization IC90 [2]: 0.052 mg/L
ELISA binding EC50 [3]: 0.011 mg/L
ELISA binding EC50 [4]: > 1 mg/L
ELISA binding EC50 [5]: 0.00128 mg/L

B13: B2083 (protein)
chain 1: QVQLVQSGAEMKKPGASVKVSCKASRYTFTGYYIHWVRQAPGQGLEWMGWINPDSGGVNYAQKFQGRVTMTRDTSINTAYMELSSLRSDDTAVYYCATHVLRSCSGGTCYEYYYYGMDVWGQGTTVTVSS
chain 2: QSALTQPASVSGSPGQSITISCTGTNSDVGAYDLVSWYQQHPDKAPKLIIYEVTKRPSGVSNRFSGSKSGNTASLTISGLQADDEADYFCCSFTGRSASFWVFGGGTKLTVL
pseudovirus neutralization IC50 [1]: 0.0268 mg/L
pseudovirus neutralization IC90 [2]: 0.861 mg/L
ELISA binding EC50 [3]: > 1 mg/L
ELISA binding EC50 [4]: 0.135 mg/L
ELISA binding EC50 [5]: 0.0048 mg/L

B14: B2086 (protein)
chain 1: QVQLVESGGGVVQPGRSLRLSCAVSGFTFSKYGMHWVRQAPGKGLEWVAVIWYDGSNKYYVDSVKGRFTTSRDNSKNTLYLQMSSLRADDTAVYYCVKAGYSYAYTPYYFDYWGQGTLVTVSS
chain 2: IRMTQSPSSLSASVGDRITITCQASQDIRKYLNWYQQKPGKAPKLLIYDASDLETGVPSRFSGSGSGTDFTLTISNLQPEDFARYYCQQNDNLPLTFGGGTKVEIK
pseudovirus neutralization IC50 [1]: > 1 mg/L
pseudovirus neutralization IC90 [2]: > 1 mg/L
ELISA binding EC50 [3]: 0.0106 mg/L
ELISA binding EC50 [4]: 0.0399 mg/L
ELISA binding EC50 [5]: 0.00359 mg/L
